Assay [1] addresses T1, Smc3^QQ W483R S72C (S. cerevisiae) (UniProt P47037).
T1 sequence: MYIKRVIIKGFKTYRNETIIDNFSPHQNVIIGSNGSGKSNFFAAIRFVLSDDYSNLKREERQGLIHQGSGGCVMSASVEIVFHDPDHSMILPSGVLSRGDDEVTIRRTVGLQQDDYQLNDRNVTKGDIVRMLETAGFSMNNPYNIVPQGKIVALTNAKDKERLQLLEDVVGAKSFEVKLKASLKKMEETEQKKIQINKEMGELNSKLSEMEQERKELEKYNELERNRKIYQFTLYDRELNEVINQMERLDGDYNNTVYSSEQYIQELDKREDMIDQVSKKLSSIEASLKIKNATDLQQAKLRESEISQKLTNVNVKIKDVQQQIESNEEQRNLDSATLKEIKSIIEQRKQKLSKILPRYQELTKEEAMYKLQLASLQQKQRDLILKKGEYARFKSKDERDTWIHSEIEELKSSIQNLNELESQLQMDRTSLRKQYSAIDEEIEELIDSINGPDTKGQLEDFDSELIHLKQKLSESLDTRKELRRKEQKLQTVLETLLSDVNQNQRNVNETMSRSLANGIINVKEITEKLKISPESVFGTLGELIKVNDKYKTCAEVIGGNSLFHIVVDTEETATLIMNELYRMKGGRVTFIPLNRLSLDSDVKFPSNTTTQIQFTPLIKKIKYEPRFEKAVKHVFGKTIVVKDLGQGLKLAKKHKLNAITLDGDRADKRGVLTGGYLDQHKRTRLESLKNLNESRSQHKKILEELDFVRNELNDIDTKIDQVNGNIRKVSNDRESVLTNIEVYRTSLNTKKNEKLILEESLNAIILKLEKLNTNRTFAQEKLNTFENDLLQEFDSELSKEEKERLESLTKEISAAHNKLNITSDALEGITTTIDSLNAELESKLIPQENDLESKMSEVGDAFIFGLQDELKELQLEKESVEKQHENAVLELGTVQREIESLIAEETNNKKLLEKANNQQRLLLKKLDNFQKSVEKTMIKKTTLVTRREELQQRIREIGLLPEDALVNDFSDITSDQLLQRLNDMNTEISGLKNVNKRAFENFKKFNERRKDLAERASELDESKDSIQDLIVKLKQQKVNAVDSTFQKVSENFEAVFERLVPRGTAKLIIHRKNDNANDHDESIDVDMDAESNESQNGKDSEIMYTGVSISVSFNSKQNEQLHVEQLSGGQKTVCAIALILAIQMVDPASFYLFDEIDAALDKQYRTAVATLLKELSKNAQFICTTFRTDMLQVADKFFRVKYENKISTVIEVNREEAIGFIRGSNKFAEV
Put plainly: cross-linking; in vivo BMOE cross-link of cysteine pairs in yeast cells arrested in late G1 by non-degradable Sic1(9m); Scc1-PK immunoprecipitated, western blot, band intensities quantified. On the technique in general: In western blotting, separated proteins are transferred to a membrane and probed.

Assay [2] concerns the target T2, Smc3 Q67C E1155Q (S. cerevisiae) (UniProt P47037).
T2 sequence: T1 sequence with Q67C, C72S, Q112K, Q113K, R483W, E1155Q
The assay is described as above.

Positions count from the first letter of the chain named. These are yes or no findings as the source states them, for the method shown. In cells and extracts the contact can be indirect. Some entries that bind do so weakly or less than the wild type.

B1: Scc2 E819C (natural protein, S. cerevisiae, UniProt Q04002 1-1493, looked up)
chain: MSYPGKDKNIPGRIIEALEDLPLSYLVPKDGLAALVNAPMRVSLPFDKTIFTSADDGRDVNINVLGTANSTTSSIKNEAEKERLVFKRPSNFTSSANSVDYVPTNFLEGLSPLAQSVLSTHKGLNDSINIEKKSEIVSRPEAKHKLESVTSNAGNLSFNDNSSNKKTKTSTGVTMTQANLAEQYLNDLKNILDIVGFDQNSAEIGNIEYWLQLPNKKFVLTTNCLTKLQMTIKNITDNPQLSNSIEITWLLRLLDVMVCNIKFSKSSLKMGLDDSMLRYIALLSTIVLFNIFLLGKNDSNLHRESYIMEPVNFLSDLIESLKILTIEYGSLKIEFDTFQEALELLPKYIRNGPFLDDNVTAKLVYIFSDLLMNNDIEATTNIQFQSFWDNVKRISSDILVSLFGSFDQQRGFIIEELLSHIEKLPTKRIQKKLRKVGNQNIYITDFTFTLMSMLENINCYSFCNQMKDIAPENIDLLKNEYKKQEEFLFNIVEHINDTILERFFKNPSALRYVIDNFVQDLLLLISSPQWPVTEKILSSLLKRLLSVYSPSMQVSANIETICLQLIGNIGSTIFDIKCSTRDHEDNNLIKMINYPETLPHFFKSFEECIAYNETIKCRRSATRFLWNLRLGTILILEEYTKDAKEQIITVDNELKKILEQIKDGGLGPELENREADFSTIKLDYFSILHAFELLNLYDPYLKLILSLLAKDKIKLRSTAIKCLSMLASKDKVILSNPMVKETIHRRLNDSSASVKDAILDLVSINSSYFEFYQQINNNYNDDSIMVRKHVLRINEKMYDETNDIVTKVYVIARILMKICDEEDNIIDMARLILLNRWILKVHEVLDQPEKLKEISSSVLLVMSRVAIMNEKCSQLFDLFLNFYLLNKEAHSKEAYDKITHVLTILTDFLVQKIVELNSDDTNEKNSIVDKQNFLNLLAKFADSTVSFLTKDHITALYPYMVSDEKSDFHYYILQVFRCTFEKLANFKQKFLYDLETTLLSRLPKMNVREIDEAMPLIWSVATHRHDTARVAKACSSCLSHLHPYINKANNEEAAIVVDGKLQRLIYLSTGFARFCFPKPSNDKIAFLQEGETLYEHITKCLLVLSKDKITHVIRRVAVKNLTKLCGNHPKLFNSRHVLHLLDKEFQSDQLDIKLVILESLYDLFLLEERKSVRNTGVNSTLSSNSILKKKLLKTNRVEFANDGVCSALATRFLDNILQLCLLRDLKNSLVAIRLLKLILKFGYTNPSHSIPTVIALFASTSQYIRHVAYELLEDLFEKYETLVFSSLSRGVTKAIHYSIHTDEKYYYKHDHFLSLLEKLCGTGKKNGPKFFKVLKRIMQSYLDDITDLTSTNSSVQKSIFVLCTNISNITFVSQYDLVSLLKTIDLTTDRLKEVIMDEIGDNVSSLSVSEEKLSGIILIQLSLQDLGTYLLHLYGLRDDVLLLDIVEESELKNKQLPAKKPDISKFSAQLENIEQYSSNGKLLTYFRKHVKDT
notes: Scc2, S. cerevisiae; source: S. cerevisiae W303, in vivo, whole-cell extract
Consider B1, for which the binding entry in assay [1] was “binds”.

B2: Scc2 T1175C (natural protein, S. cerevisiae, UniProt Q04002 1-1493, looked up)
chain: B1 chain with C819E, T1175C
notes: as for B1
Consider B2, for which the binding result in assay [2] is “binds”.

Values taken from paper PMC10516938, “Conformational dynamics of cohesin/Scc2 loading complex are regulated by Smc3 acetylation and ATP binding” (Nature Communications, 2023).
